B1: PD1-IL7-VAR19 (E84A) (other)
light: DIVMTQSPDSLAVSLGERATINCKASESVDTSDNSFIHWYQQKPGQSPKLLIYRSSTLESGVPDRFSGSGSGTDFTLTISSLQAEDVAVYYCQQNYDVPWTFGQGTKVEIKRTVAAPSVFIFPPSDEQLKSGTASVVCLLNNFYPREAKVQWKVDNALQSGNSQESVTEQDSKDSTYSLSSTLTLSKADYEKHKVYACEVTHQGLSSPVTKSFNRGEC
heavy 1: EVQLLESGGGLVQPGGSLRLSCAASGFSFSSYTMSWVRQAPGKGLEWVATISGGGRDIYYPDSVKGRFTISRDNSKNTLYLQMNSLRAEDTAVYYCVLLTGRVYFALDSWGQGTLVTVSSASTKGPSVFPLAPSSKSTSGGTAALGCLVKDYFPEPVTVSWNSGALTSGVHTFPAVLQSSGLYSLSSVVTVPSSSLGTQTYICNVNHKPSNTKVDKKVEPKSCDKTHTCPPCPAPEAAGGPSVFLFPPKPKDTLMISRTPEVTCVVVDVSHEDPEVKFNWYVDGVEVHNAKTKPREEQYNSTYRVVSVLTVLHQDWLNGKEYKCKVSNKALGAPIEKTISKAKGQPREPQVCTLPPSRDELTKNQVSLSCAVKGFYPSDIAVEWESNGQPENNYKTTPPVLDSDGSFFLVSKLTVDKSRWQQGNVFSCSVMHEALHNHYTQKSLSLSPGK
heavy 2: EVQLLESGGGLVQPGGSLRLSCAASGFSFSSYTMSWVRQAPGKGLEWVATISGGGRDIYYPDSVKGRFTISRDNSKNTLYLQMNSLRAEDTAVYYCVLLTGRVYFALDSWGQGTLVTVSSASTKGPSVFPLAPSSKSTSGGTAALGCLVKDYFPEPVTVSWNSGALTSGVHTFPAVLQSSGLYSLSSVVTVPSSSLGTQTYICNVNHKPSNTKVDKKV[human IgG1 Fc with changes left out]GGGGSGGGGSGGGGSDCDIEGKDGKQYESVLMVSIDQLLDSMKEIGSNCLNNEFNFFKRHICDANKEGMFLFRAARKLRQFLKMNSTGDFDLHLLKVSAGTTILLNCTGQVKGRKPAALGEAQPTKSLEENKSLKEQKKLNDLCFLKRLLQEIKTCWNKILMGTKEH
notes: Format as m1; IL-7 with E84A
B2: PD1-IL7-VAR23 (Q136A) (other)
light: B1 light
heavy 1: B1 heavy 1
heavy 2: EVQLLESGGGLVQPGGSLRLSCAASGFSFSSYTMSWVRQAPGKGLEWVATISGGGRDIYYPDSVKGRFTISRDNSKNTLYLQMNSLRAEDTAVYYCVLLTGRVYFALDSWGQGTLVTVSSASTKGPSVFPLAPSSKSTSGGTAALGCLVKDYFPEPVTVSWNSGALTSGVHTFPAVLQSSGLYSLSSVVTVPSSSLGTQTYICNVNHKPSNTKVDKKV[human IgG1 Fc with changes left out]GGGGSGGGGSGGGGSDCDIEGKDGKQYESVLMVSIDQLLDSMKEIGSNCLNNEFNFFKRHICDANKEGMFLFRAARKLRQFLKMNSTGDFDLHLLKVSEGTTILLNCTGQVKGRKPAALGEAQPTKSLEENKSLKEQKKLNDLCFLKRLLAEIKTCWNKILMGTKEH
notes: Format as m1; IL-7 with Q136A
B3: PD1-IL7-VAR24 (Q136K) (other)
light: B1 light
heavy 1: B1 heavy 1
heavy 2: EVQLLESGGGLVQPGGSLRLSCAASGFSFSSYTMSWVRQAPGKGLEWVATISGGGRDIYYPDSVKGRFTISRDNSKNTLYLQMNSLRAEDTAVYYCVLLTGRVYFALDSWGQGTLVTVSSASTKGPSVFPLAPSSKSTSGGTAALGCLVKDYFPEPVTVSWNSGALTSGVHTFPAVLQSSGLYSLSSVVTVPSSSLGTQTYICNVNHKPSNTKVDKKV[human IgG1 Fc with changes left out]GGGGSGGGGSGGGGSDCDIEGKDGKQYESVLMVSIDQLLDSMKEIGSNCLNNEFNFFKRHICDANKEGMFLFRAARKLRQFLKMNSTGDFDLHLLKVSEGTTILLNCTGQVKGRKPAALGEAQPTKSLEENKSLKEQKKLNDLCFLKRLLKEIKTCWNKILMGTKEH
notes: Format as m1; IL-7 with Q136K
B4: PD1-IL7-VAR25 (K139A) (other)
light: B1 light
heavy 1: B1 heavy 1
heavy 2: EVQLLESGGGLVQPGGSLRLSCAASGFSFSSYTMSWVRQAPGKGLEWVATISGGGRDIYYPDSVKGRFTISRDNSKNTLYLQMNSLRAEDTAVYYCVLLTGRVYFALDSWGQGTLVTVSSASTKGPSVFPLAPSSKSTSGGTAALGCLVKDYFPEPVTVSWNSGALTSGVHTFPAVLQSSGLYSLSSVVTVPSSSLGTQTYICNVNHKPSNTKVDKKV[human IgG1 Fc with changes left out]GGGGSGGGGSGGGGSDCDIEGKDGKQYESVLMVSIDQLLDSMKEIGSNCLNNEFNFFKRHICDANKEGMFLFRAARKLRQFLKMNSTGDFDLHLLKVSEGTTILLNCTGQVKGRKPAALGEAQPTKSLEENKSLKEQKKLNDLCFLKRLLQEIATCWNKILMGTKEH
notes: Format as m1; IL-7 with K139A
B5: PD1-IL7-VAR26 (K139E) (other)
light: B1 light
heavy 1: B1 heavy 1
heavy 2: EVQLLESGGGLVQPGGSLRLSCAASGFSFSSYTMSWVRQAPGKGLEWVATISGGGRDIYYPDSVKGRFTISRDNSKNTLYLQMNSLRAEDTAVYYCVLLTGRVYFALDSWGQGTLVTVSSASTKGPSVFPLAPSSKSTSGGTAALGCLVKDYFPEPVTVSWNSGALTSGVHTFPAVLQSSGLYSLSSVVTVPSSSLGTQTYICNVNHKPSNTKVDKKV[human IgG1 Fc with changes left out]GGGGSGGGGSGGGGSDCDIEGKDGKQYESVLMVSIDQLLDSMKEIGSNCLNNEFNFFKRHICDANKEGMFLFRAARKLRQFLKMNSTGDFDLHLLKVSEGTTILLNCTGQVKGRKPAALGEAQPTKSLEENKSLKEQKKLNDLCFLKRLLQEIETCWNKILMGTKEH
notes: Format as m1; IL-7 with K139E
B6: PD1-IL7-VAR28 (M147A) (other)
light: B1 light
heavy 1: B1 heavy 1
heavy 2: EVQLLESGGGLVQPGGSLRLSCAASGFSFSSYTMSWVRQAPGKGLEWVATISGGGRDIYYPDSVKGRFTISRDNSKNTLYLQMNSLRAEDTAVYYCVLLTGRVYFALDSWGQGTLVTVSSASTKGPSVFPLAPSSKSTSGGTAALGCLVKDYFPEPVTVSWNSGALTSGVHTFPAVLQSSGLYSLSSVVTVPSSSLGTQTYICNVNHKPSNTKVDKKV[human IgG1 Fc with changes left out]GGGGSGGGGSGGGGSDCDIEGKDGKQYESVLMVSIDQLLDSMKEIGSNCLNNEFNFFKRHICDANKEGMFLFRAARKLRQFLKMNSTGDFDLHLLKVSEGTTILLNCTGQVKGRKPAALGEAQPTKSLEENKSLKEQKKLNDLCFLKRLLQEIKTCWNKILAGTKEH
notes: Format as m1; IL-7 with M147A

Molecular target: T1, Human IL7Ra-IL2Rγ-Fc heterodimer (human, biotin on the avi tag)
T1 construct: Extracellular domains of IL-7Ralpha and IL-2Rgamma fused to Fc knob and Fc hole; also called hu IL7Ra-IL2Rγ-Fc avi biotin; human IL7Ra-IL2Rg-Fc biotin
Assay: SPR, captured from supernatant, 800 nM receptor-Fc single injection
Protocol: Surface Plasmon Resonacne (SPR) experiments were performed on a Biacore T200 with HBS-EP+ as running buffer (0.01 M HEPES pH 7.4, 0.15 M NaCl, 0.005% Surfactant P20 (BR-1006-69, GE Healthcare)). Fc specific antibodies (Roche internal) were directly immobilized by amine coupling on a CM5 chip (GE Healthcare). The PDI-IL7 constructs were captured from supernatants for 120 s at 100 nM. […] Only the extracellular domains were fused to Fc domains, produced in HEK Expi Cells and purified by two-step column chromatography including affinity purification via Protein A followed by size-exclusion chromatography. A single injection of 800 nM hu IL 7Ra-IL2Rγ-Fc heterodimer was passed over the ligand at 30 µ1/min for 240 sec to record the association phase. The dissociation phase was monitored for 360 s and triggered by switching from the sample solution to HBS-EP+. The chip surface was regenerated after every cycle using one injection of 10 mM glycine pH 2 for 60 sec. Bulk refractive index differences were corrected for by subtracting the response obtained on the reference flow cell 1. The response units after the capture step and at the end of the association phase were recorded and a ratio of binding to capture was calculated. The single binding curves were fitted in the dissociation phase to obtain a koff for ease of comparison (Biacore Evaluation software, GE Healthcare).
The ratio of binding to capture was calculated and the dissociation phase was fitted to a single curve to support the characterization of the off-rate.

Binder	koff [s⁻¹]
B1	0.000611
B2	0.000766
B3	0.000918
B4	0.000506
B5	0.000947
B6	0.000869

Reference: US20230192795A1 (Hoffmann-La Roche, published 2023)
